Data taken from the supplement of paper PMC5499739.
In all, about 16,000 sequences were measured (“Z-score”: median about -0.37, highest 2% from about 3.1 on). The list shows a part of the results.

system: RBM10 RRM1-ZnF-RRM2 (GST-tagged construct); test: RNAcompete 7-mer binding Z-score; higher = stronger binding preference
How it was run: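 Bound RNA was identified by microarray hybridisation after GST-tagged RBM10 constructs (20 pmol) had been mixed with 1.5 nmol of a designed pool of 241 399 RNAs up to 41 nt, transcribed from microarray-derived DNA templates. Binding ran for 30 min at 4°C in 1 ml Hepes pH 7.8 buffer with KCl, NaCl, glycerol, DTT, BSA and glutathione Sepharose beads, with four 2-min washes at 4°C afterwards. For every heptamer motif, a one-sided Z-score for enrichment was computed across the probes that contained it.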

Row | Sequence | RNAcompete 7-mer binding Z-score
1 | CGGCGGC | 0.264
2 | AAGACGU | 0.00944
3 | AUUCAGG | 0.589
4 | CAAUGUG | 0.865
5 | GCAUCAU | -0.428
6 | UCGAGCC | -0.694
7 | AGAGAGU | 0.785
8 | UGCAACG | -0.14
9 | CCCUACA | -0.908
10 | UAUAGAC | -0.209
11 | UCGGUCC | -0.533
12 | GAUAUCU | -0.562
13 | UCGAAGG | 0.927
14 | UUGUGCU | -0.588
15 | GAAGGUU | 2.96
16 | CACUGCA | -0.57
17 | CAACACC | -0.398
18 | UGACGAA | 0.217
19 | CACGUCC | -0.785
20 | UCGAGCU | -0.413
21 | GUUUCUG | -0.329
22 | GAGAGAA | 0.833
23 | AAUCACU | -0.428

Row | Sequence | RNAcompete 7-mer binding Z-score
24 | UGGGUCA | 1.71
25 | AAUGGCU | 0.37
26 | GGCUAGC | 0.396
27 | GUGUCUA | -0.457
28 | AUGUCCU | -0.77
29 | GUGCCGA | 0.0422
30 | UCGAUAU | -0.475
31 | GAGCAGA | 0.894
32 | AUGUUGA | -0.125
33 | AAGAACA | 0.21
34 | UACGGCG | 0.148
35 | UCCAACC | -0.857
36 | GAAGGCG | 2.66
37 | GAGAUCU | -0.398
38 | CGCACAG | -0.34
39 | CCGUCGG | -0.147
40 | GCGUCAA | -0.0707
41 | AUCUUCG | -0.839
42 | UUGCGGA | 0.253
43 | UUCUGAA | -0.632
44 | GUAUUUU | -0.668
45 | GAGAUUG | 0.643
46 | UGCUCUA | -0.887

Row | Sequence | RNAcompete 7-mer binding Z-score
47 | CGGCUUG | -0.366
48 | UAAGUUA | -0.0816
49 | GAACUCU | -0.792
50 | GUCUUUG | -0.599
51 | UUCUCAA | -0.704
52 | UCGGGUC | 0.512
53 | CUAUAGU | -0.515
54 | AGGUAGU | 1.19
55 | CUUUACC | -0.828
56 | CGAAACC | -0.482
57 | UCUACAA | -0.675
58 | ACUAACG | -0.409
59 | AAAUUUG | -0.307
60 | UUCCCGC | -0.846
61 | AAGUGAC | 0.902
62 | AAAGGUA | 3.53
63 | CCUAGAG | -0.497
64 | GGAGUCA | 1.05
65 | AUUAGGU | 1.13
66 | GGCCCGC | -0.675
67 | AGUCGAC | 0.00944
68 | AUAUCCG | -0.697
69 | AAAGUCU | -0.628

Row | Sequence | RNAcompete 7-mer binding Z-score
70 | UGUCUGU | -0.628
71 | AUACGUC | -0.42
72 | CCGAAGA | -0.581
73 | AGAAGCA | 0.0349
74 | UGAGUCC | -0.398
75 | UAGGUGG | 2.82
76 | CUCACUA | -0.803
77 | GAGGAGG | 2.99
78 | GUAGUGU | 0.909
79 | CUUGCGC | -0.774
80 | UGUCUUG | -0.675
81 | UCACUAU | -0.65
82 | CUACUCC | -0.854
83 | CUUCCAA | -0.825
84 | UUGCGCG | -0.26
85 | GGAUGUU | 0.567
86 | UGGCCAC | -0.409
87 | ACUAUCA | -0.723
88 | AGUUUGC | -0.38
89 | GGAUGUA | 1.78
90 | AAAUAAU | -0.362
91 | UUGUUCU | -0.803
92 | GCUCGCU | -0.588

Row | Sequence | RNAcompete 7-mer binding Z-score
93 | GUGAUCU | -0.424
94 | CACGCAC | -0.602
95 | UCCUCUC | -0.661
96 | UAACGAU | -0.388
97 | UAUGGUG | 1.46
98 | UAGUUUC | -0.53
99 | GACGCAC | -0.639
100 | CCAAUCG | -0.326
101 | GUUGUAC | -0.278
102 | GAACGAU | 0.13
103 | UAACCUG | -0.723
104 | GCGUGAU | 0.414
105 | AUAGGAG | 2.27
106 | GUGAAGU | 0.971
107 | AUUUAGA | -0.125
108 | CACAUAC | -0.541
109 | ACACUGA | -0.486
110 | UUAAAUA | -0.373
111 | UUUCGGA | -0.107
112 | AAUUCAG | -0.187
113 | AACCAAU | -0.406
114 | GUCUGAU | -0.624
115 | CCUAACG | -0.712

Row | Sequence | RNAcompete 7-mer binding Z-score
116 | GCAGGUU | 1.19
117 | CCUGCGG | -0.0343
118 | GCUUAUA | -0.715
119 | AGGACAG | 1.49
120 | CGUAGUA | -0.00877
121 | CGGAGAC | 0.454
122 | UAUUCGC | -0.686
123 | UUCUGAC | -0.821
124 | CUGAACU | -0.795
125 | UAGGGUU | 3.14
126 | CGUGGGG | 3.57
127 | AGGCACA | 0.0932
128 | ACGGCCG | -0.3
129 | AGAAAUA | -0.162
130 | CCGACCA | -0.93
131 | GACCGUU | -0.923
132 | GUACAUU | -0.184
133 | AAGUGUA | 0.935
134 | UGACGAU | 0.0714
135 | UUCAAAA | -0.65
136 | AUGCACG | 0.111
137 | CACCCCG | -0.344
138 | CCAAGAA | -0.26

Row | Sequence | RNAcompete 7-mer binding Z-score
139 | AUUGCCU | -0.868
140 | GAUGAGG | 3.6
141 | GAUAAAA | -0.0197
142 | UCGCGGU | -0.0816
143 | UAAUUUC | -0.781
144 | UUUAUGA | -0.737
145 | AUAUGUC | -0.431
146 | GACGAAC | -0.0962
147 | CACAUCA | -0.541
148 | GUUAUGU | -0.0743
149 | ACGCUUA | -0.89
150 | AUUCAAC | -0.581
151 | GUUCUGG | -0.158
152 | UCUAUAC | -0.744
153 | CACCGGU | -0.0998
154 | CGGGGCU | 1.43
155 | CUGCUUC | -0.825
156 | AGCCUAG | -0.599
157 | CGCUCAG | -0.555
158 | GUCCUGC | -0.606
159 | AGCAACU | -0.34
160 | CAGUCGU | -0.307
161 | CUGGGAU | 0.964

Row | Sequence | RNAcompete 7-mer binding Z-score
162 | GAGGAGC | 1.79
163 | GGCAAAG | 1.95
164 | GCAGACA | -0.114
165 | UCAACAU | -0.453
166 | AGGCUAU | -0.322
167 | AUUGGAG | 2.24
168 | UUGUACG | -0.519
169 | GUUCUCC | -0.628
170 | AACUUGU | -0.781
171 | GGUUUUG | 1.21
172 | CGCAAAG | -0.22
173 | CACUUUU | -0.927
174 | GUCACCA | -0.347
175 | UAGGUGU | 1.68
176 | AAGCCCA | -0.741
177 | CAGAUAC | -0.471
178 | CGAACGC | -0.256
179 | GGUCAGG | 1.99
180 | AAUUGCU | -0.38
181 | CGGCUUA | -0.522
182 | CGUCCCA | -0.741
183 | UACUCCU | -0.814
